Source: PubChem BioAssay AID1030 (National Center for Advancing Translational Sciences (NCATS), 2008)
In all, about 220,000 compounds went through this assay and about 16,000 (7.3%) were called active. Inconclusive results, whose numbers are uncertain, are shown with a selection of clear calls. Calls come from the whole dose curve; as a rule, active = well fitted inhibition curve with a large enough effect (not every such curve was filed as active); inconclusive = small, poorly fitted or top-dose-only effect, or another doubt; inactive = no such curve, though single readings can be large or run the other way. Potencies of inconclusive entries are left out as doubtful fits.

These compounds were tested against Aldehyde dehydrogenase 1A1 (Homo sapiens) (UniProt P00352) (assay: qHTS Assay for Inhibitors of Aldehyde Dehydrogenase 1 (ALDH1A1)). Details: Purified ALDH1A1, NADH fluorescence, propionaldehyde substrate; series mostly up to 75.3 µM.
Potency is the fitted concentration of half-maximal effect; tags give direction and shape of the fitted curve.

Chain of UniProt P00352 (P00352 whole entry, looked up): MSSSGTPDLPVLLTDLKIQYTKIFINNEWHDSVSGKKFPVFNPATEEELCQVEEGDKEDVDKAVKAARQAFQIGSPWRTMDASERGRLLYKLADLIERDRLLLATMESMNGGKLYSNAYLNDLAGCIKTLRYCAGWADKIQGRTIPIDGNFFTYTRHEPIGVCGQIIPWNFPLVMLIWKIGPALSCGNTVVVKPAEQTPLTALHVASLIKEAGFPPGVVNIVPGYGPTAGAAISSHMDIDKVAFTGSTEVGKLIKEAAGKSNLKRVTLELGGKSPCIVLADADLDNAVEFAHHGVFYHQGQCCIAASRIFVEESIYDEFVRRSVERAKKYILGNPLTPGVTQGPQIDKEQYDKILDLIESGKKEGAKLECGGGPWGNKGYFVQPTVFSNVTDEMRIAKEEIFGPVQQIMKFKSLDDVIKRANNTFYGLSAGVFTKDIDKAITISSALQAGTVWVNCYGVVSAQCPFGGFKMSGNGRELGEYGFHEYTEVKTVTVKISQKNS

Compound | Potency
CN(C)S(=O)(=O)c1ccc(N2CCN(S(=O)(=O)c3ccc(F)cc3)CC2)c(Cl)c1 | inactive
O=C(CN1C(=O)c2ccccc2C1=O)Nc1ccccc1N1CCOCC1 | inactive
COc1cc(/C=N/NC(N)=O)ccc1OC(=O)c1ccc(C)cc1 | inactive
Cc1ccc(C(=O)CSc2ncn[nH]2)cc1 | inconclusive [inhibitor, single point]
O=c1c(CCc2ccccc2)nc2cncnc2n1C1CC1 | inconclusive [inhibitor, single point]
COc1ccccc1OCC(=O)/C=C1/N(C)c2ccccc2C1(C)C | inconclusive [inhibitor, partial curve]
COCCCNS(=O)(=O)c1ccc(SC)cc1 | inconclusive [inhibitor, single point]
O=C(Nc1ccc2oc(=O)c(C(=O)O)cc2c1)Oc1ccccc1 | inconclusive [inhibitor, single point]
COc1cccc(-c2cc(C(=O)Nc3nc4ccccc4s3)c3ccccc3n2)c1 | inconclusive [inhibitor, partial curve]
COc1ccc(OC)c(NC(=O)C(=O)NNC(=O)c2cccs2)c1 | inconclusive [inhibitor, single point]
CCCCC(=O)Nc1ccccc1C(C)C | inactive
CCOC(=O)c1c(NS(=O)(=O)Cc2ccccc2)sc2c1CCCC2 | inconclusive [inhibitor, partial curve]
CN(c1ccccc1)C1CCCCC1NS(=O)(=O)c1ccc(Cl)cc1 (stereo not drawn) | inconclusive [inhibitor, single point]
Cc1nc2c(C(=O)NCCC(C)C)c[nH]n2c(=O)c1Cl | inconclusive [inhibitor, partial curve]
CCC1=C(OC(=O)N(CC)CC)N2C(=O)OC(=NCC(=O)OC)[C@]2(Cc2ccccc2)[C@H]2C1=CC[C@H]1C(=O)N(c3ccccc3)C(=O)[C@H]12 | inconclusive [inhibitor, single point]
CCOC(=O)C1CCCN(C(=O)/C=C/c2ccc(OC)cc2)C1 (stereo not drawn) | active: 22.4 µM
CCOC(=O)c1nn(-c2cccc(C)c2)cc1C(=O)c1ccccc1 | active: 5.01 µM
CCOC(=O)c1nnn(-c2nonc2N)c1COc1ccccc1 | inconclusive [inhibitor, partial curve]
CSc1cccc(CN2CCC(CO)(Cc3cccc(C(F)(F)F)c3)CC2)c1 | inconclusive [inhibitor, partial curve]
CC1(C)NC(=O)N(CC(O)CN(Cc2ccccc2)Cc2ccccc2)C1=O (stereo not drawn) | inactive
C=CCn1c2ccccc2c2nnc(SCc3ccc4nonc4c3)nc21 | inconclusive [inhibitor, partial curve]
O=C(NCc1ccccc1)c1cc(S(=O)(=O)N2CCOCC2)ccc1F | inactive
O=S(=O)(Nc1ccc(-c2cn3cccnc3n2)cc1)c1ccccc1 | inconclusive [inhibitor, partial curve]
COc1ccccc1-c1cc(C(=O)Nc2ccccc2SC)no1 | inconclusive [inhibitor, single point]
COc1ccc(-c2cc(C(=O)Nc3ccc(C(N)=O)cc3)c3ccccc3n2)cc1OC | inconclusive [inhibitor, single point]

Compound | Potency
ClCC1NCC(c2ccccc2Cl)c2c1[nH]c1ccccc21 (stereo not drawn) | inactive
O=S(=O)(Nc1ccc(-n2cccc2)cc1)c1ccc(Cl)c(Cl)c1 | inconclusive [inhibitor, single point]
Cc1nn(C)cc1/C=C1\CCC/C(=C\c2cn(C)nc2C)C1=O | active: 28.2 µM
O=C(Nc1ccc(N2CCCCC2)c(Cl)c1)c1ccc2c(c1)OCCO2 | inconclusive [inhibitor, single point]
COc1ccc(CNc2ncnc3ccc(-c4ccc5c(c4)OCO5)cc23)c(OC)c1 | inconclusive [inhibitor, partial curve]
CCCCCCCCOc1ccc(C2OC34CCCCC3C(C#N)(C#N)C2(C#N)C(=N)O4)cc1 (stereo not drawn) | inconclusive [inhibitor, partial curve]
Cc1ccc(N(CN2CCCC2=O)C(=O)c2ccc(C)c(C)c2)cc1 | inconclusive [inhibitor, single point]
N#CCSc1nc2sc3c(c2c(=O)n1C1CCCCC1)CCCC3 | inconclusive [inhibitor, full curve, poor fit]
O=C(c1ccc(S(=O)(=O)Cc2cc(F)ccc2F)c([N+](=O)[O-])c1)N1CCCCC1 | active: 8.91 µM
Cc1ccccc1-c1nnn(CC(=O)N2CCN(S(=O)(=O)c3ccc(Cl)cc3)CC2)n1 | inactive
Cc1ccc(C(=O)NCC(=O)OCC(=O)Nc2ccccc2C#N)s1 | inactive
COc1ccccc1OCC#CCNC1CCCCC1C (stereo not drawn) | inconclusive [inhibitor, single point]
Cc1ccccc1Nc1nc(N)nc(COC(=O)c2ccccc2)n1 | inactive
CNc1ccc(Oc2nc([N+](=O)[O-])nn2C)cc1 | inactive
CCCOc1ccc(Br)cc1-c1cc(-c2ccc(Cl)cc2)[nH]c1-c1ccncc1 | inconclusive [inhibitor, single point]
CCn1c(=O)cc(OCC(=O)NCc2ccco2)c2ccccc21 | inconclusive [inhibitor, single point]
O=C(CSc1nnc(NC(=O)c2ccccc2F)s1)Nc1ccccc1F | inconclusive [inhibitor, single point]
COc1cc(OC)c2c(-c3cccc(-c4cccc(N)c4)c3)cc(=O)oc2c1 | inactive
COc1ccc(C(=O)Oc2cc(/C=N/NS(=O)(=O)c3ccccc3)ccc2OC)cc1 | active: 3.16 µM
CCOC(=O)c1ccc(-c2c(C)cc3oc(=O)cc(-c4ccccc4)c3c2C)cc1 | inactive
CCOC(=O)c1c(-c2ccc(C)cc2)csc1NC(=O)CCSc1nnc2ccccn12 | inconclusive [inhibitor, partial curve]
O=C(O)c1cccc(N2C(=O)CSC2c2c(F)cccc2Cl)c1 (stereo not drawn) | inconclusive [inhibitor, single point]
Cc1ccc2c(c1)c1ncnc(N3CCN(c4ccccc4)CC3)c1n2C | inconclusive [inhibitor, partial curve]
NNC(=O)COc1cccc(Oc2ccccc2)c1 | inconclusive [inhibitor, partial curve]
CCOc1ccc(NC(=S)Nc2cc(OC)c(Cl)cc2OC)cc1 | inconclusive [inhibitor, single point]

Compound | Potency
c1ccc(-c2cc(-c3ccc(N4CCOCC4)cc3)nc3ccccc23)cc1 | inconclusive [inhibitor, partial curve]
CC(C)c1ccc(NC(=S)NN(c2ccccc2)c2ccccc2)cc1 | active: 14.1 µM
COc1c(Cl)cnn(-c2ccc(C)cc2)c1=O | inconclusive [inhibitor, single point]
O=C(Oc1ccccc1)c1cc2ccccc2oc1=O | inconclusive [inhibitor, single point]
COc1ccc(C2SCCN2C(=S)Nc2ccc(F)cc2)cc1 (stereo not drawn) | inconclusive [inhibitor, single point]
COc1ccc(N=C2NC(=O)CS2)c([N+](=O)[O-])c1 | inconclusive [inhibitor, single point]
CC(=O)NC(Cc1ccc(O)cc1)C(=O)NN (stereo not drawn) | inactive
CC(C)C1COc2cc3oc(=O)ccc3cc2O1 (stereo not drawn) | inconclusive [inhibitor, partial curve]
COc1ccccc1N1C(=O)C(Cl)=C(Nc2ccccc2O)C1=O | active: 12.6 µM
O=C(Nc1ccc(N2CCCC2)c(Cl)c1)c1ccccc1[N+](=O)[O-] | inconclusive [inhibitor, single point]
CCCN(Cc1ccccc1)C(=O)Nc1ccc2c(c1)nnn2C | inconclusive [inhibitor, single point]
COC(=O)c1sccc1NC(=O)c1csc2c1CCCC2 | active: 22.4 µM
CCOc1ccc2c(=O)c(Oc3ccccc3OCC)coc2c1 | inactive
COC(=O)c1ccc(COc2ccc(/C=N/NC(N)=S)cc2)o1 | inconclusive [inhibitor, single point]
O=C(CSc1ncnc2c1oc1ccccc12)NCc1ccco1 | active: 11.2 µM
CC(C)NC(=O)c1ccc(-n2nc(C(F)(F)F)c3c2CCCC3)cc1 | inactive
CN(C)c1ncc2nc(CCc3ccccc3)c(=O)n(Cc3ccc(F)cc3)c2n1 | inconclusive [inhibitor, partial curve]
COc1ccc(C(=O)N2CCC3(CCCN(C(=O)NC(C)C)C3)CC2)cc1 | inactive
COC(=O)c1c(NC(=O)CN2CCN(C(=O)c3ccco3)CC2)c2c(C)cccc2n1C | inconclusive [inhibitor, partial curve]
CCC(=O)Nc1sc(C(=O)Nc2ccccc2OC)c(C)c1C(=O)OC | inconclusive [inhibitor, single point]
O=C(CSc1cccc2cccnc12)NCc1ccco1 | inconclusive [inhibitor, single point]
O=C(NC(=S)NCCSc1ccccc1)c1cccnc1 | active: 14.1 µM
Cc1ccccc1-n1c(SCC(=O)NCc2cccs2)nc2ccccc2c1=O | inconclusive [inhibitor, single point]
